Measurements taken from PubChem BioAssay AID686979 (National Center for Advancing Translational Sciences (NCATS), 2013).
The campaign covered roughly 420,000 compounds. About 50,000 (12%) were called active. Inconclusive results (about 26%) are left out. Calls come from the whole dose curve; as a rule, active = well fitted inhibition curve with a large enough effect; inconclusive = small, poorly fitted or top-dose-only effect; inactive = flat fitted curve, though single readings scatter. Only a part is listed here, and it is no random draw. The source holds several records for some structures; these can differ, active in one and inactive in another.

Assay: qHTS for Inhibitors of human tyrosyl-DNA phosphodiesterase 1 (TDP1): qHTS in cells in presence of CPT; note: nearly all actives have a fitted effect of over 55% in size
Conditions: chicken DT40 Tdp1-/-;hTDP1 cells + 20 nM CPT, ATP luminescence, 48 h; series mostly up to 46.2 µM; activity change, negative = growth inhibition: at the top concentration
Outline: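 Chicken DT40 Tdp1-/- cells complemented with human TDP1, 400 cells/well, exposed to compounds plus 20 nM camptothecin for at least 48 h at 37 C; viability read as ATP content by CellTiter-Glo luminescence.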
% is set by controls: 0 for no effect and ±100 for the full control effect; potency is the fitted concentration of half-maximal effect.

Row | SMILES | activity change, negative = growth inhibition | Potency
1 | COc1ccccc1C(=O)Nc1ccc2c(c1)nc(CN1CCCCC1)n2C | inactive: -26.5% | 
2 | O=C1OC(C(O)CO)C(O)=C1O (stereo not drawn) | inactive: 2.02% | 
3 | Cc1nc2c3ccccc3nc(NNC(=O)CCC(=O)N3CCN(c4ccccc4F)CC3)n2n1 | inactive: -21.5% | 
4 | COc1ccccc1C(CNC(=O)c1ccc(-c2ccccc2Cl)o1)N1CCCC1 (stereo not drawn) |  | active: 23.1 µM
5 | O=NNc1nc2ccccc2n1Cc1ccccc1 |  | active: 4.61 µM
6 | O=C(NC1(Cc2ccc(O)cc2)CCCCC1)c1ccccc1 | inactive: 14.8% | 
7 | CC1CN(S(=O)(=O)c2cccc(C(=O)N(C)C3CCCCC3)c2)CC(C)O1 (stereo not drawn) |  | active: 18.4 µM
8 | COc1c2c(nc3occc13)C(CC=C(C)C)(OC)C(=O)C=C2 (stereo not drawn) | inactive: 2.29% [at 9.04 µM] | 
9 | CC1CCN(S(=O)(=O)c2ccc3c(c2)N(CC(=O)O)C(=O)CO3)CC1 |  | active: 14.6 µM
10 | CCN1CCN(C(=O)Nc2cc(Cl)ccc2OC)CC1 | inactive: 31.9% | 
11 | Cc1nc2nc[nH]n2c(=O)c1NC(=O)CC12CC3CC(CC(C3)C1)C2 | inactive: -1.91% | 
12 | O=C(Nc1ccccc1)C1=C[C@H](c2ccc(C(F)(F)F)cc2)C[C@H](OCCCCO)O1 | inactive: -23.4% | 
13 | COc1cccc(CN(C)CC(=O)Nc2cc3oc4ccccc4c3cc2OC)c1 |  | active: 23.1 µM
14 | CN(C1CCCCC1)S(=O)(=O)c1ccc(C(=O)Nc2sc3c(c2C(N)=O)CC(C)(C)NC3(C)C)cc1 | inactive: -29.7% | 
15 | Cn1c(=O)c(=O)n(C)c2cc(S(=O)(=O)N3CCN(c4ccccc4F)CC3)ccc21 | inactive: 2.62% | 
16 | CCN(C(=O)CCS(=O)(=O)c1cccc2nsnc12)c1cccc(C)c1 | inactive: -7.64% | 
17 | COc1ccccc1NC(=O)CCN1C(=O)/C(=C\c2cc(OC)c(OC)c(OC)c2)SC1=S | inactive: -12.9% | 
18 | CCC(C(=O)NC1CCCCC1)n1c(SCc2ccc(F)cc2)nc2ccncc21 (stereo not drawn) | inactive: -18.2% | 
19 | CC(NC(=O)CN(C)S(=O)(=O)c1ccc2c(c1)c(=O)n(C)c(=O)n2C)c1ccccc1 (stereo not drawn) | inactive: -3.43% | 
20 | COc1ccc2nc(N=NC3=C(O)CC(C)(C)CC3=O)sc2c1 |  | active: 5.17 µM
21 | CCOc1ccc(C2C(C(=O)c3ccc(C)o3)=C(O)C(=O)N2CCCN(CC)CC)cc1 (stereo not drawn) | inactive: -1.79% | 
22 | Cc1cc2oc(C(=O)NCCc3ccc(S(N)(=O)=O)cc3)cc(=O)c2cc1C | inactive: -2.33% | 
23 | COC(=O)c1cc2occc2n1Cc1nc(-c2ccccc2C)oc1C | inactive: -26.5% | 
24 | CCC(C)Sc1nc2c([nH]c3ccccc32)c(=O)n1C (stereo not drawn) | inactive: -2.21% | 
25 | COc1ccc(-c2ccc(C(=O)NCCc3ccccc3)c3occc23)c(C)c1 |  | active: 20.6 µM

Row | SMILES | activity change, negative = growth inhibition | Potency
26 | CCC(Sc1nc2cc(OC)c(OC)cc2c(=O)n1Cc1ccc(OC)cc1)C(=O)NCCOC (stereo not drawn) | inactive: -1.34% | 
27 | Cc1ccc([C@H]2C[C@H](n3cc(COC(=O)c4ccccc4)nn3)[C@@H](O)CN2C(=O)C2CCCCC2)cc1 | inactive: -9.12% | 
28 | CCN(Cc1ccccc1)C(=O)CCS(=O)(=O)c1ccc2c(c1)CCN2C(C)=O | inactive: -23.4% | 
29 | COc1ccc(OCCNC(=O)C2(C)CCN2Cc2ccc3ccccc3c2)cc1 (stereo not drawn) |  | active: 29.1 µM
30 | N[C@H](C(=O)O)c1ccc(C(=O)O)c(O)c1 |  | inactive
31 | CN(Cc1ccccc1)C(=O)CCC1CCN(C(=O)c2ccco2)CC1 | inactive: 4.83% | 
32 | COc1ccc([C@H]2C[C@H](O)[C@@H](n3cc(-c4ccc(F)cc4)nn3)CN2CC2CCCCC2)cc1 | inactive: -61.4% | 
33 | CCOC(=O)N1CCN(C(=O)CCN2C(=O)/C(=C\c3ccc(OC)c(OC)c3)SC2=S)CC1 | inactive: -0.934% | 
34 | O=C(Nc1ccc(F)cc1)Nc1nnc([C@@H]2C[C@H](O)[C@@H](CO)O2)s1 | inactive: -10.1% | 
35 | CCOc1cc2c(cc1/C=C1/NC(=O)N(CC(=O)OC)C1=O)OCO2 | inactive: 33.5% | 
36 | C[n+]1ccccc1/C=C/c1c(F)cccc1F | inactive: 10.3% | 
37 | COc1ccc(C)cc1NC(=O)CN(C)S(=O)(=O)c1ccc2c(c1)CCCN2C(C)=O | inactive: -20.3% | 
38 | CN(C(=O)CSc1nc2ccc(NC(=O)c3ccccc3F)cc2s1)c1ccccc1 |  | active: 14.6 µM
39 | Cc1cccc(N2CCN(C(=S)Nc3ccc4nc(N5CCN(C)CC5)cc(C)c4c3)CC2)c1C |  | active: 1.3 µM
40 | CCNC(=S)N1CCC(C(O)(c2ccccc2)c2ccccc2)CC1 | inactive: 5.16% | 
41 | CCc1nnc(NS(=O)(=O)c2ccc(NC(=O)c3cccc(Cl)c3)cc2)s1 | inactive: 32.5% | 
42 | COc1ccc(CN2Cc3cccc4c3[C@@H](CC2=O)[C@H](O)[C@H](O)C4)cc1 | inactive: 1.61% | 
43 | COc1ccc(C(=O)NC(=S)Nc2ccc(N3CCOCC3)c(Cl)c2)cc1[N+](=O)[O-] |  | active: 13 µM
44 | CN1CCN2c3ccccc3Cc3ccccc3C2C1 (stereo not drawn) |  | inactive
45 | Cc1cc(NS(=O)(=O)c2cn(C)nc2C)no1 | inactive: 44.2% | 
46 | COC(=O)[C@@H]1C[C@@H]2CC[C@@H](O)C[C@@H]2N1Cc1ccccc1OS(=O)(=O)c1ccc(C)cc1 | inactive: 1.74% | 
47 | CCCCCCC(=O)N(O)C1CC(=O)N(c2ccc(C)cc2)C1=O (stereo not drawn) |  | active: 2.91 µM
48 | Nc1c(C(=O)NCc2ccc3c(c2)OCO3)nnn1CC(=O)Nc1ccc(Br)cc1 | inactive: -24.6% | 
49 | COc1ccc(N(CC(=O)NCCSc2ccccn2)S(=O)(=O)c2ccccc2)cc1Cl |  | active: 16.4 µM
50 | CCC(c1ccccc1)c1nnc(NC(=O)c2ccco2)s1 (stereo not drawn) | inactive: 0.867% | 

Row | SMILES | activity change, negative = growth inhibition | Potency
51 | COc1cc(CNC(=O)CCCCCCC(C)C)ccc1O | inactive: -6.54% | 
52 | O=C1C=CC2=C3c4cc(O)c(O)cc4CC3(O)COC2=C1O (stereo not drawn) |  | inactive
53 | Cc1ccc(C2=NN=C(NC(=O)CSc3nnc4c5ccccc5n(C)c4n3)SC2)cc1 |  | active: 10.3 µM
54 | Cc1ccc([N+](=O)[O-])c2c1C(N1CCCCC1)C(C)(C)O2 (stereo not drawn) | inactive: -3.37% | 
55 | Cc1ccnc(NC(=O)CN2C(=O)c3ccccc3C2=O)c1 | inactive: 45% | 
56 | CC(C)C[C@@H](CN=[N+]=[N-])N1CCN(Cc2ccccc2)CCC1=O | inactive: -14.2% | 
57 | Cc1ccc2c(c1)N(S(=O)(=O)c1ccc3c(c1)NC(=O)CC(=O)N3)CCO2 | inactive: -10.2% | 
58 | O=C1O[C@H]([C@@H](O)CO)C(O)=C1O |  | inactive
59 | CN(C)c1ccc(/C=C/c2cc[n+](C)c3ccc4ccccc4c23)cc1 |  | active: 0.0891 µM
60 | Cc1cc(=O)n(CC(=O)N2CCN(c3ccc(F)cc3)CC2)c2c1c(C)nn2C |  | active: 18.4 µM
61 | O=C1CC[C@@H](O)CCN1CC[C@H](Sc1ccccc1)c1ccccc1 | inactive: -26.4% | 
62 | COc1ccccc1N1CCN(CCN2C(=O)CC3(CCCC3)CC2=O)CC1 |  | inactive
63 | CC(C)C(Cl)=NOC(=O)Nc1ccc(S(N)(=O)=O)cc1 |  | active: 1.16 µM
64 | C=CCNC(=O)C12CCC(C)(C(=O)C1Br)C2(C)C (stereo not drawn) | inactive: -0.767% | 
65 | COc1ccc(N2CCN(C(=O)CCC(=O)NNc3nc4ccccc4c4nc(C)nn34)CC2)cc1 | inactive: -4.91% | 
66 | COc1ccc(CNC(=O)[C@@H]2CC=C[C@@H]3CCN(Cc4ccccc4)C(=O)[C@@H]32)cc1 | inactive: -23.3% | 
67 | CCOc1ccccc1C(=O)Nc1nnc(COC)s1 | inactive: -0.0325% | 
68 | COc1ccc(Cl)cc1NC(=O)CN(C)CC(=O)N1CC(=O)Nc2ccccc21 | inactive: -25.9% | 
69 | OCC[C@H]1C[C@@H](O)[C@H](O)[C@]2(Cc3ccccc3O2)O1 | inactive: 14.6% | 
70 | CC(=O)Nc1ccc(N2C(=O)CSC2c2ccc([N+](=O)[O-])cc2)cc1 (stereo not drawn) | inactive: 36% | 
71 | CCO[C@H]1OC(C(=O)N2CCCCCCC2)=C[C@@H](c2csc3ccccc23)[C@@H]1CCCO | inactive: -28.3% | 
72 | COc1ccc(CC(=O)c2ccc(O)cc2O)cc1 | inactive: -21.2% | 
73 | COc1ccc(N2CCN(C(=O)Nc3ccccc3Cl)CC2)cc1 | inactive: -18.7% | 
74 | CCOC(=O)N1CCN(S(=O)(=O)N2CCCC(C(=O)NCc3ccc(OC)cc3OC)C2)CC1 (stereo not drawn) | inactive: -27.5% | 
75 | CC(=O)c1cc(-c2ccccc2)n(CCC(=O)NC2CCCCC2)c1C | inactive: 4.76% | 

Row | SMILES | activity change, negative = growth inhibition | Potency
76 | CCCCOc1ccc(OCCCN2CCOCC2)cc1 |  | inactive
77 | CC(C)CCNC(=O)C1CCC(CNS(=O)(=O)c2cccc3nsnc23)CC1 (stereo not drawn) | inactive: -23.8% | 
78 | CN1N=C2c3ccccc3CCC2C1c1ccc(Cl)cc1 (stereo not drawn) | inactive: 33.4% | 
79 | CC(=O)Nc1ccc(S(=O)(=O)NCc2ccc(C(=O)NCc3ccc(Cl)cc3)cc2)cc1 | inactive: -19.4% | 
80 | CCOC(=O)c1cc2c(ccn2C)n1CC(=O)N(CC)CC | inactive: 5.74% | 
81 | COc1ccc(-c2cc(C(=O)NC(C)c3ccccn3)c3ccccc3n2)cc1OC (stereo not drawn) |  | active: 23.1 µM
82 | COc1ccccc1CN1CCCC(n2cc(C(=O)N3CCCC3)nn2)C1 (stereo not drawn) | inactive: 41.9% [at 9.04 µM] | 
83 | CCN(Cc1ccccc1)S(=O)(=O)c1c(C)n(C)c(=O)n(C)c1=O | inactive: 2.51% | 
84 | Cn1c2c(c(=O)n(C)c1=O)C(c1cccc(F)c1)C(C#N)=C(N)O2 (stereo not drawn) | inactive: 12.8% | 
85 | Cc1ccc(O)c(C(=O)CC(=O)c2ccc(Cl)cc2)c1 |  | active: 7.31 µM
86 | CN(C)c1ccc(C(=S)N2CCN(C(=S)Nc3ccccc3)CC2)cc1 | inactive: 1.01% | 
87 | Cc1c(C)n(C)c2ccc(C(=O)N3CCN(c4ccccc4)CC3)cc12 | inactive: -26.6% | 
88 | Cc1ccc(C2=N/C(=C/c3cccs3)C(=O)N2Nc2ccccc2)cc1 | inactive: -17.9% | 
89 | COC(=O)c1cc2occc2n1Cc1cccc(C)c1 | inactive: -10.7% | 
90 | CC[C@]12CCCN3CCc4c(n(c5ccccc45)[C@@](O)(C(=O)OC)C1)[C@@H]32 |  | inactive
91 | Cc1cc(OC(=O)C2CC2)c([N+](=O)[O-])c(=O)[nH]1 | inactive: 40.2% | 
92 | O=C(CCC(=O)c1cccs1)Nc1ncccc1O | inactive: 16.2% | 
93 | Cc1nnc(NC(=O)CSc2nc(C(C)C)nc3ccccc23)s1 |  | active: 6.51 µM
94 | C[C@@H]1CN([C@H](C)CO)C(=O)CCCn2cc(nn2)CO[C@H]1CN(C)S(=O)(=O)c1ccc2ccccc2c1 | inactive: -17% | 
95 | CC(O)(C(=O)Nc1ccc(S(=O)(=O)c2ccccc2)cc1)C(F)(F)F (stereo not drawn) | inactive: -27.1% | 
96 | O=C(NC1CC1)C1=C[C@H](c2coc3ccccc3c2=O)C[C@H](OCc2ccc(CO)cc2)O1 | inactive: -14% | 
97 | O=C(CNC(=O)c1cccs1)NCC(=O)OCc1c(Cl)cccc1Cl | inactive: 1% | 
98 | COc1cc(C(C)=O)ccc1COc1ccc(C(=O)OCC(N)=O)cc1OC | inactive: 36.9% | 
